Hit rate of the full screen: of about 150,000 compounds, about 540 (0.36%) showed an effect of 50% or more. The list shows a part of the results.
system: Plasmodium falciparum; test: Primary screen in NF54 nanoGlo assay, in single point, at 2uM, 72h; a lower Z score goes with more inhibition; format: functional, Erythrocyte; conditions: timepoint 72 hour

In order of falling “% Inhibition” value:
1. CN(C(=O)CCC1CCOC1)C1CCCN(Cc2ccccc2)C1 (centres undefined)  21%
2. NC(=O)CCCC(=O)NCC(=O)Nc1ccccc1  8%
3. O=C(Nc1cccc(C2CC2)n1)N1CC(S(=O)(=O)N2CCNCC2)C1  7%
4. COc1ccc(NC(=O)N2CC[C@H]3COC(=O)N3c3cc(F)ccc3C2)cc1  7%
5. CC(=O)N1CCC[C@H]1C(=O)NC(C)Cc1ccccc1Cl (some centres undefined)  7%
6. O=C(CN1CCN(S(=O)(=O)c2ccc(Br)cc2)CC1)Nc1ccc2c(c1)OCCO2  6%
7. Cn1nc(CN(Cc2ccco2)C(=O)N2CCOCC2)c2c1CCC2  5%
8. NC1(CNC(=O)c2ccccc2Cl)CCCCCC1  3%
9. Nc1nc(N2CCCCCC2)nc2ccccc12  3%
10. Cc1cccc(CN2CCC[C@H]2C(=O)NC2CC2)c1C  3%
11. Cn1ncc2c(=O)[nH]c(CN3CCCCCCC3)nc21  2%
12. OC1(C2CC2)CN(c2nc3ccccc3s2)C1  2%
13. Cc1noc(C)c1CCOc1ccc(O[C@H]2CCCCNC2=O)cc1  2%
14. COc1cccc(-n2c(C)nn(Cc3ccc(Cl)cc3)c2=O)c1  0%
15. CC(C)C[C@](C)(NC(=O)c1cccc(-c2ccoc2)c1)C(N)=O  0%
16. CCN(CC)C(=O)N[C@@H](C)COc1ccc(F)cc1F  -1%
17. O=C1N(CCc2c[nH]c3c(Cl)cccc23)C(=O)C23CC(CN12)C3  -1%
18. CC[C@H](NC(=O)Nc1cccc(C(=O)N(C)C)c1C)c1cc(C)ccn1  -1%
19. OC(CC(O)c1ccccc1)CN1CCOCC1 (centres undefined)  -2%
20. COc1ccnc(NCc2[nH]nc(C)c2C)n1  -2%
21. Cc1cccc(CNC(=O)CN(C)C)c1Br  -4%
22. CC(=O)N1CC[C@@H]2CN(C(=O)c3ccc(C)cc3Cl)C[C@@H]2CC1  -4%
23. CCn1cnnc1CC1CCN(C(=O)CCS(=O)(=O)c2ccc3c(c2)CCN3C(C)=O)CC1  -5%
24. CN(C1CCCC1)C(C)(C)C(=O)NCc1csc(=O)[nH]1  -6%
25. O=C(C[C@H]1COc2cc(F)ccc2N1Cc1ccccc1)NCCCN1CCCCC1  -7%
26. CCCn1cc(N[C@@H](C)C(=O)N(C)C(C)C)cn1  -7%
27. CC1(CNC(=O)[C@@H]2NCCOc3ccccc32)CC(F)(F)C1  -8%
28. CC(C)CC1(CNC(=O)c2cnc(-c3ncccn3)s2)CC1  -8%
29. c1ccc(CN2CCC(NC3(c4ccccc4)CCC3)CC2)cc1  -8%
30. CCO[C@H]1C[C@H](NC(=O)Nc2ccncc2Br)C1  -9%
31. O=C(Nc1ccc(C(F)(F)F)cc1)C1=NCCN1  -9%
32. CN(Cc1ccccc1)Cn1c(=S)sc2ccc(Cl)cc21  -10%
33. CCC#CCN1CCC[C@H](CNC(=O)c2oc(C)nc2C)C1  -10%
34. COc1ccc(N2CCN(C(=O)Cn3c(C)cc(C)c3-c3nc(C(C)C)no3)CC2)cc1  -10%
35. c1ccc2nc(N3CCC4(CCCN4Cc4ccc(-c5cc[nH]n5)o4)CC3)cnc2c1  -10%
36. Cn1ccnc(NCc2ccccc2CN2CCCCCC2)c1=O  -13%
37. Cc1cc(CC(=O)Nc2ccc(Cl)cc2O)n[nH]1  -13%
38. CC(C)(c1ccccc1)c1nc([C@@H]2COCCN2)no1  -18%
39. CC(C)c1noc([C@H](C)NS(=O)(=O)N2CCCC2)n1  -19%
40. Cc1ccccc1[C@H]1CCc2nc(C(=O)N3CCCCC3)cn2C1  -20%
41. CN(C)C(=O)CNCc1cnc(-c2ccco2)nc1  -26%
42. COc1ccc(CCOc2cc(C)n(C)n2)cc1  -27%

In order of rising Z score:
1. CN(C(=O)CCC1CCOC1)C1CCCN(Cc2ccccc2)C1 (centres undefined)  -2.61
2. O=C(Nc1cccc(C2CC2)n1)N1CC(S(=O)(=O)N2CCNCC2)C1  -1.33
3. CC(=O)N1CCC[C@H]1C(=O)NC(C)Cc1ccccc1Cl (some centres undefined)  -0.98
4. COc1ccc(NC(=O)N2CC[C@H]3COC(=O)N3c3cc(F)ccc3C2)cc1  -0.89
5. Cn1nc(CN(Cc2ccco2)C(=O)N2CCOCC2)c2c1CCC2  -0.83
6. NC(=O)CCCC(=O)NCC(=O)Nc1ccccc1  -0.82
7. O=C(CN1CCN(S(=O)(=O)c2ccc(Br)cc2)CC1)Nc1ccc2c(c1)OCCO2  -0.75
8. NC1(CNC(=O)c2ccccc2Cl)CCCCCC1  -0.57
9. Cc1cccc(CN2CCC[C@H]2C(=O)NC2CC2)c1C  -0.4
10. Nc1nc(N2CCCCCC2)nc2ccccc12  -0.37
11. OC1(C2CC2)CN(c2nc3ccccc3s2)C1  -0.24
12. Cc1noc(C)c1CCOc1ccc(O[C@H]2CCCCNC2=O)cc1  -0.24
13. Cn1ncc2c(=O)[nH]c(CN3CCCCCCC3)nc21  -0.21
14. COc1cccc(-n2c(C)nn(Cc3ccc(Cl)cc3)c2=O)c1  0.04
15. CC(C)C[C@](C)(NC(=O)c1cccc(-c2ccoc2)c1)C(N)=O  0.04
16. O=C1N(CCc2c[nH]c3c(Cl)cccc23)C(=O)C23CC(CN12)C3  0.1
17. CCN(CC)C(=O)N[C@@H](C)COc1ccc(F)cc1F  0.12
18. CC[C@H](NC(=O)Nc1cccc(C(=O)N(C)C)c1C)c1cc(C)ccn1  0.17
19. OC(CC(O)c1ccccc1)CN1CCOCC1 (centres undefined)  0.23
20. COc1ccnc(NCc2[nH]nc(C)c2C)n1  0.26
21. CC(=O)N1CC[C@@H]2CN(C(=O)c3ccc(C)cc3Cl)C[C@@H]2CC1  0.53
22. CN(C1CCCC1)C(C)(C)C(=O)NCc1csc(=O)[nH]1  0.74
23. Cc1cccc(CNC(=O)CN(C)C)c1Br  0.84
24. CCn1cnnc1CC1CCN(C(=O)CCS(=O)(=O)c2ccc3c(c2)CCN3C(C)=O)CC1  0.95
25. CCCn1cc(N[C@@H](C)C(=O)N(C)C(C)C)cn1  1.02
26. O=C(C[C@H]1COc2cc(F)ccc2N1Cc1ccccc1)NCCCN1CCCCC1  1.05
27. c1ccc(CN2CCC(NC3(c4ccccc4)CCC3)CC2)cc1  1.06
28. CC(C)CC1(CNC(=O)c2cnc(-c3ncccn3)s2)CC1  1.21
29. O=C(Nc1ccc(C(F)(F)F)cc1)C1=NCCN1  1.26
30. COc1ccc(N2CCN(C(=O)Cn3c(C)cc(C)c3-c3nc(C(C)C)no3)CC2)cc1  1.32
31. c1ccc2nc(N3CCC4(CCCN4Cc4ccc(-c5cc[nH]n5)o4)CC3)cnc2c1  1.34
32. CCO[C@H]1C[C@H](NC(=O)Nc2ccncc2Br)C1  1.38
33. CCC#CCN1CCC[C@H](CNC(=O)c2oc(C)nc2C)C1  1.42
34. CC1(CNC(=O)[C@@H]2NCCOc3ccccc32)CC(F)(F)C1  1.62
35. Cc1ccccc1[C@H]1CCc2nc(C(=O)N3CCCCC3)cn2C1  1.93
36. CN(Cc1ccccc1)Cn1c(=S)sc2ccc(Cl)cc21  1.95
37. CC(C)c1noc([C@H](C)NS(=O)(=O)N2CCCC2)n1  2.01
38. CC(C)(c1ccccc1)c1nc([C@@H]2COCCN2)no1  2.16
39. Cn1ccnc(NCc2ccccc2CN2CCCCCC2)c1=O  2.22
40. Cc1cc(CC(=O)Nc2ccc(Cl)cc2O)n[nH]1  2.25
41. CN(C)C(=O)CNCc1cnc(-c2ccco2)nc1  2.29
42. COc1ccc(CCOc2cc(C)n(C)n2)cc1  2.91

— ChEMBL document CHEMBL4888484, “Replenishing the malaria drug discovery pipeline: Screening and hit evaluation of the MMV Hit Generation Library 1 (HGL1) against asexual blood stage Plasmodium falciparum ,using a nano luciferase reporter read-out” (2022)
